# Reference: publication PMC4336329 (PLoS ONE, 2015)
# The campaign covered roughly 310,000 compounds. About 14,000 (4.5%) showed an effect of 50% or more. Effects have a minus sign here. This is one part of the list.
# Biological target: human ether-à-go-go-related gene (hERG) potassium channel (human, UniProt Q12809)
# Experiment: primary screen, population patch clamp on CHO cells stably expressing hERG
# 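Note: peak tail current of the secondary pulse compared with the same well before compound.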
# Chain of human ether-à-go-go-related gene (hERG) potassium channel (Q12809 whole entry, looked up): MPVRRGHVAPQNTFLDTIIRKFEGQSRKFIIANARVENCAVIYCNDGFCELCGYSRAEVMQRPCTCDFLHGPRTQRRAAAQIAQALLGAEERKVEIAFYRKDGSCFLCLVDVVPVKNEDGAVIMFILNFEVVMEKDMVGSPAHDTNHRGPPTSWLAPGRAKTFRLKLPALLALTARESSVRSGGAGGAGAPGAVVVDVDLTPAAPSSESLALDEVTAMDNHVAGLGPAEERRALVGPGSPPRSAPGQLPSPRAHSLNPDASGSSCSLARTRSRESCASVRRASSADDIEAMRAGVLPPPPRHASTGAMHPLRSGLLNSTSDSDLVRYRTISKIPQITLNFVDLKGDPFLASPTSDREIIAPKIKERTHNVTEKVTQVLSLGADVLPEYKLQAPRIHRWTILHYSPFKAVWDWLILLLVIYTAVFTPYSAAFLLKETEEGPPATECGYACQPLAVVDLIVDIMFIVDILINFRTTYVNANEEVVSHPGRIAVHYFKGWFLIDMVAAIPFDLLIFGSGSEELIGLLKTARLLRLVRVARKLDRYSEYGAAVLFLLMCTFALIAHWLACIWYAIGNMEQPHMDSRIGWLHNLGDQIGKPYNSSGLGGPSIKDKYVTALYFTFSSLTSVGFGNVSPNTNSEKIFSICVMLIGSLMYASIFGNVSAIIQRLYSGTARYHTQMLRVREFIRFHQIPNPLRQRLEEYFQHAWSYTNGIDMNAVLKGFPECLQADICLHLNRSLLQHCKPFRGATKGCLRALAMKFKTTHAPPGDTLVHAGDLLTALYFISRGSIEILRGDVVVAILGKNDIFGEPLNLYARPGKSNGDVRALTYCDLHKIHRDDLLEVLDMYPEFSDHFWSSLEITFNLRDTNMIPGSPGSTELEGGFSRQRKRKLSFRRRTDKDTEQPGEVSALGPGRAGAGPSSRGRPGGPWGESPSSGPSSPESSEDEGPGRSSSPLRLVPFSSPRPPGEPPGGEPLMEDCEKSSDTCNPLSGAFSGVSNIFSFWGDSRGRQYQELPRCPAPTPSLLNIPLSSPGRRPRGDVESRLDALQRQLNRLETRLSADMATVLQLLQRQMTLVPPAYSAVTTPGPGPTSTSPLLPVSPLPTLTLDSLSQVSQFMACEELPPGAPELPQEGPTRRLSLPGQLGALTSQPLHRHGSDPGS
row,SMILES,"hERG current change (%, negative = inhibition) at 10uM [%]"
1,CCCCC(=O)NC1(C(F)(F)F)C(=O)Nc2c1c(=O)n(C)c(=O)n2C (stereo not shown),-4.15
2,O=C(COc1ccc([N+](=O)[O-])cc1)NCc1ccccc1,-38.9
3,CC1(C)Cc2c(cnn2-c2cccc(F)c2)C(NC(=O)c2cc[n+]([O-])cc2)C1 (stereo not shown),-37.3
4,COc1cccc(N2CCN(C(=S)Nc3cccc(C)c3)CC2)c1,1.42
5,COc1ccc(NC(=O)CN(C)C(=O)CN2C(=O)NC3(CCCCC3)C2=O)cc1,3.29
6,O=C1CC(c2cccs2)c2ccc3ccccc3c2N1 (stereo not shown),14.6
7,CC[C@H](C)/C=C(C)/C=C/C1=CC2=C(Cl)C(=O)[C@@](C)(OC(C)=O)C(=O)C2=CO1,11.5
8,Cc1ccc(N2CCN(C3=NC(=O)/C(=C\c4cccs4)S3)CC2)cc1,-22.7
9,O=C1NCCN(Cc2c(F)cccc2Cl)C1CC(=O)N1CCCCO1 (stereo not shown),24.1
10,O=C(c1ccc(NS(=O)(=O)c2ccccc2)cc1)N1CCCCCC1,-11.9
11,O=C(O)CC(C(=O)Nc1ccc(Cl)cc1Cl)C1CCCO1 (stereo not shown),20.2
12,CC(=O)c1cccc(NC(=O)CN(C)S(=O)(=O)c2ccccc2)c1,-11.5
13,COC(=O)c1ccsc1NC(=O)CN1C(=O)CCC1=O,2.02
14,O=C(CNC(=O)c1ccc(Cl)cc1)OCC(=O)c1ccccc1,-9.01
15,N=C(N)N1CCc2ccccc2C1.O=S(=O)(O)O,-1.74
16,COc1ccc(OC)c(S(=O)(=O)N2CCC3(CC2)CC(=O)c2ccccc2O3)c1,-47.1
17,Cc1cc(CN(C)C(=O)c2ccc3nc(Cc4ccccc4F)oc3c2)on1,-5.71
18,Cc1ccccc1Nc1cccc2nonc12,5.69
19,Cc1ccc(-n2nnnc2SC(C(=O)c2c[nH]c3ccccc23)c2ccccc2)cc1 (stereo not shown),6.56
20,CSc1ccc(CN(C)C(=O)CNC(=O)CNS(=O)(=O)c2ccc(C)c(C)c2)cc1,-24.1
21,C/C=C/c1ccc(OCCOc2ccc(C=O)cc2OC)c(OC)c1,16.5
22,COc1ccc(-n2nnc3c(SCC(=O)Nc4ccc5c(c4)OCCO5)ncnc32)cc1,0.643

row,SMILES,"hERG current change (%, negative = inhibition) at 10uM [%]"
1,OC1(c2cccs2)CN(c2ccc(Cl)cc2)C2=[N+]1CCCS2.[Br-] (stereo not shown),-73.6
2,N#C/C(=C/c1ccc(Br)o1)C(N)=O,-0.529
3,Cc1c(NC(=O)CN2C(=O)c3ccc([N+](=O)[O-])cc3C2=O)c(=O)n(-c2ccccc2)n1C,8.89
4,O=C(O)CCCCCn1c(O)c(C=C2N=c3ccccc3=N2)sc1=S,22.3
5,Cc1ccc(-n2c(SCC(=O)O)nc3sc4c(c3c2=O)CCCC4)cc1,15.1
6,O=C(CSc1nc2[nH]ncc2c(=O)[nH]1)Nc1ccccc1C(F)(F)F,3.48
7,Cc1cccc(C)c1OCC(=O)N(Cc1ccc(Cl)cc1)C1CCS(=O)(=O)C1 (stereo not shown),-36.1
8,Cc1ccc(Oc2cc([N+](=O)[O-])cc3c2C(=O)Nc2ccccc2O3)cc1,2.8
9,CCOc1ccc(NC(=O)c2ccc(N3CC4CC(C3)c3cccc(=O)n3C4)c(NC(=O)c3ccncc3)c2)cc1 (stereo not shown),1.19
10,CC(=O)Nc1ccc(S(=O)(=O)NC(C)(C#N)C2CC2)cc1 (stereo not shown),11
11,COc1cccc(CNC(=O)C(=O)NCC2CCCN2S(=O)(=O)c2cc(C)ccc2C)c1 (stereo not shown),-34.4
12,O=C(CN1CCOc2ccccc21)N1CCCC1,12.5
13,CC1CCN(C(=O)CSc2ccc(-c3ccccc3)nn2)CC1,-11.8
14,Cc1ccc(NC(=O)CN(C)CC(=O)Nc2ccc(N3CCOCC3)cc2)cc1F.O=C(O)C(=O)O,-15.3
15,COc1ccc(C(CNC(=O)c2ccc3c(c2)CCC3)N(C)C)cc1 (stereo not shown),-5.08
16,CCCCNC(=O)CN1CCN(Cc2ccc3cc(OC)ccc3c2)CC1.O=C(O)C(=O)O,-69
17,O=C(NCc1cccs1)c1cnc2sccn2c1=O,-14
18,Cc1cc(C(=O)NCc2ccc(S(N)(=O)=O)cc2)cs1,-14
19,Cc1ccc(NC(=O)CSc2nnc(Cn3cnc4ccccc43)o2)c(C)c1,1.12
20,C=CCc1cccc(/C=N/NC(=O)C(C)Nc2ccc(C)cc2)c1O (stereo not shown),8.9
21,COc1ccc(Cl)cc1NC(=O)COC(=O)CCCC1=NS(=O)(=O)c2ccccc2N1,21.4
